The source of these data is the RNAGym collection of RNA variant scans (doi:10.1073/pnas.2313332121).

B1: TPR 5TU (parent)
chain: GGAUCUUCUCGAUCUAACAAAAAAGACAAAUCUGCCACAAAGCUUGAGAGCAUCUUCGGAUGCAGAGGCGGCAGCCUUCGGUGGCGCGAUAGCGCCAACGUUCUCAACUAUGACACGCAAAACGCGUGCUCCGUUGAAUGGAGUUUAUCAUG

Variants at the floor of the assay are shown more often than the library holds them. A value given as a limit tells only on which side of the number the result lay.

In this data set the parent is B1. The data set can be described thus: polymerase ribozyme fitness, log enrichment relative to wild type (log ratio); higher = more active; in vitro selection for triplet polymerase activity. The essentials:
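Each subunit of a heterodimeric triplet polymerase ribozyme was represented by a PCR-built, transcribed mutant library that underwent triplicate single-round in vitro selection with frozen incubation at −7 °C. Extended constructs were recovered by gel excision, streptavidin-bead capture and RT-PCR, and Illumina sequencing of input and output libraries kept genotypes with ≥10 input reads and ≥1 read per output. Fitness is the logarithm of genotype enrichment relative to wild-type enrichment, from inverse-variance-weighted replicate averages, with a logarithm base of 2.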
As to A40U G67U C69A C87A C129A, the “polymerase ribozyme fitness (log ratio)” value is at most -4.2.
The figure for G42C U44A A49U A60C C79U C96U is at most -4.2; for G42A G74A C85U C114U U127G U134G U146C G152C it is at most -4.2.
Under A40G U61C C87A A89G stands at most -4.2; under U44A U45A A47C G124A A138C, at most -4.2; under G42U C105G A106U, at most -4.2.
Regarding A41G G48U A52C G88A C99U G136A G143C, the “polymerase ribozyme fitness (log ratio)” value was at most -4.2.
As for G42C A110C, the “polymerase ribozyme fitness (log ratio)” value is at most -4.2.
As to U44A G46C G81U C85A C114G A150C, the “polymerase ribozyme fitness (log ratio)” value is at most -4.2.
Under G42A C63G C85A A121U A137U U146G stands at most -4.2; under U44G C76A G88U C96A A122C, at most -4.2; under U44A U53A G84A A121U, at most -4.2.
With U44A G50A C85U U102C, the “polymerase ribozyme fitness (log ratio)” value is at most -4.2.
The figure for C43A A52G C75A C87A C114U G117A U139A is at most -4.2.
Regarding G42C C87U, the “polymerase ribozyme fitness (log ratio)” value is at most -4.2.
Under A41C U44G G59C A73G C93U stands at most -4.2; under U44A U77G C87U, at most -4.2; under U44A C57U G71A G83A C95A, at most -4.2.
The figure for A41C C51U G59A C63U C79U G86U C123U G143C is at most -4.2.
Under A40U A49U U53G U56A G62C C72U G84A stands at most -4.2; under C43G G84U G128U G140U, at most -4.2.
A41G G68A C72U G81A A98U G143U: the “polymerase ribozyme fitness (log ratio)” value was at most -4.2.
The figure for C43A C105G G141C is at most -4.2; for A41C G58A G70C C76U A91C it is at most -4.2.
The figure for C43G U53A C54U U78G U139A is at most -4.2.
Take U44A U82C C85G G88C C105U G140C: the “polymerase ribozyme fitness (log ratio)” value was at most -4.2.
Under A40U C93U G133A stands at most -4.2; under A41U C43U U56A U61A C116A, at most -4.2.
Turning to U45A A52C U82C, the “polymerase ribozyme fitness (log ratio)” value is at most -4.2.
The figure for U44A A52C G88A A119C is at most -4.2.
On to U44A C69A C96A A106G, for which the “polymerase ribozyme fitness (log ratio)” value is at most -4.2.
The figure for C43U U77G C99U A106C U146A is at most -4.2; for A41C A138U it is at most -4.2.
Under U44G G59A G68U A107U U109G stands at most -4.2; under U44G G58C C69A C79U, at most -4.2.
The figure for A40G G81C U90C C103A G117C is at most -4.2; for G42C C54U A73G A120C it is at most -4.2.
On to U45A C57U A60U G124A A150G, for which the “polymerase ribozyme fitness (log ratio)” value is at most -4.2.
Under A40G G46A C57G C85U C118G stands at most -4.2; under U44A C57U C72A G86A A122U, at most -4.2.
The figure for A41U G59C C76A C85G C103A is at most -4.2; for A40U G58U A73G G92C C114U A138G G141A G152U it is at most -4.2; for G42C G86U C95A it is at most -4.2.
In the case of A40U U45A G70A U77C G84A G100U U102G G140C, the “polymerase ribozyme fitness (log ratio)” value is at most -4.2.
Turning to G42U C43G C54G G94U U144C A147C, the “polymerase ribozyme fitness (log ratio)” value was at most -4.2.
In the case of U45A C76U A98U G100C U101G A106U A150G, the “polymerase ribozyme fitness (log ratio)” value was at most -4.2.
The figure for U45A A49C is at most -4.2; for A41C G62C C87G A110C A113U A122G G136U it is at most -4.2; for A40U U61A U77G C114A C132U it is at most -4.2.
For A41C G86A C99G, the “polymerase ribozyme fitness (log ratio)” value was at most -4.2.
Regarding C43A C57G G70A C76A C93U G136C A142C, the “polymerase ribozyme fitness (log ratio)” value is at most -4.2.
Under G42A C57U C95A U109G G140U stands at most -4.2; under U45A C63A A115U C118G G128A, at most -4.2.
On to G42C U44A G84C U134G, for which the “polymerase ribozyme fitness (log ratio)” value was at most -4.2.
Consider U44G C99A, for which the “polymerase ribozyme fitness (log ratio)” value was at most -4.2.
Under C43G A121U stands at most -4.2; under U44A U55G A64G A73U U130G, at most -4.2.
As for U44G A64G C85U, the “polymerase ribozyme fitness (log ratio)” value is at most -4.2.
Consider A40G A49C A64C C96A A97U G136A, for which the “polymerase ribozyme fitness (log ratio)” value is at most -4.2.
Under C43A U53A A66G G88C stands at most -4.2.
Under G42U G94C C116A U145G stands at most -4.2.
On to C43G C57U C72G U77C A97G, for which the “polymerase ribozyme fitness (log ratio)” value is at most -4.2.
Under G42U U55A C72U C79U U101G A120U stands at most -4.2; under U44C U53A C85U A98G, at most -4.2.
Under C43U A52C C93A C95U stands at most -4.2; under U44A C85U A91U U109A A115G, at most -4.2; under C43U C79G G94U A142C U144A, at most -4.2.
Consider A41G G42C U78A C87U U127G G143A U145A, for which the “polymerase ribozyme fitness (log ratio)” value is at most -4.2.
Under G42C C85A stands at most -4.2; under A41U C76A C87A C108U, at most -4.2.
The figure for G42A G88C G92C G117A is at most -4.2.
The figure for A40U G86U C99A C149A U151C is at most -4.2.
For C43U G68U A73G U109G A121U, the “polymerase ribozyme fitness (log ratio)” value was at most -4.2.
The figure for A41C G48A C99G C114G is at most -4.2; for A40U G59A C79G G84A G140A A147U it is at most -4.2.
The figure for G42A C43G G84A U104A U144G is at most -4.2; for U45A U55A G67C A138U it is at most -4.2.
As to C43G U148A, the “polymerase ribozyme fitness (log ratio)” value is at most -4.2.
Under U44G G86U G92A stands at most -4.2; under A41C C43U C87G G100A U127G G143A, at most -4.2.
For U44G A47U C95A A115U G128U C129U, the “polymerase ribozyme fitness (log ratio)” value is at most -4.2.
C43A U61G C72U G86U A89U C103A C123U: the “polymerase ribozyme fitness (log ratio)” value was at most -4.2.
For A41C G84U A89G U102G A142G, the “polymerase ribozyme fitness (log ratio)” value was at most -4.2.
The figure for A40U G74C C85G C103G A122C G124A U144C is at most -4.2.
